Our source for the binding values is PMC3804554.

Experiment [1] deals with T1, EloA-Myc (Elongin A, Myc-tagged) (Drosophila melanogaster) (UniProt Q9VCP0).
T1 sequence: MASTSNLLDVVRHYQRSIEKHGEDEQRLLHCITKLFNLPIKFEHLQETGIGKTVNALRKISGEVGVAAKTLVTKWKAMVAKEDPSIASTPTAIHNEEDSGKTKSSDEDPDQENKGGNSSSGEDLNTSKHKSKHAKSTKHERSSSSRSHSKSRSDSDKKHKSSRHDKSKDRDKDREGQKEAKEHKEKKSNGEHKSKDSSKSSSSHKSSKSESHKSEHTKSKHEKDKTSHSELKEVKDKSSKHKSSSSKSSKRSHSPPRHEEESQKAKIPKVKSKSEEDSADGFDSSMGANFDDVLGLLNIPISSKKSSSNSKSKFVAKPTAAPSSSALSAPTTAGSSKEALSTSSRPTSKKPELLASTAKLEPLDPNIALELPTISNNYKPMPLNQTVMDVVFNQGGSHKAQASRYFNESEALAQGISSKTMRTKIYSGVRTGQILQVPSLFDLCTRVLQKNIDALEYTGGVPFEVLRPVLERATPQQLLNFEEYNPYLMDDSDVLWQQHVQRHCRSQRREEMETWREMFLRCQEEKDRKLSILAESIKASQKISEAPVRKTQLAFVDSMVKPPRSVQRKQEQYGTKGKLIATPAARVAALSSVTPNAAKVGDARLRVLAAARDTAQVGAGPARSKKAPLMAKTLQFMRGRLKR
Briefly: condition: only native protein extracts, without cross-linking; co-IP; Myc- and FLAG-tagged proteins co-expressed in S2 cells; native whole cell extracts (no cross-linking); IP with anti-FLAG or anti-Myc, protein G-agarose, Western blot. In general terms: Immunoblotting shows a protein as a band on a membrane.

Experiment [2] concerns the target T1, EloA-Myc (Elongin A, Myc-tagged) (Drosophila melanogaster). Kind of experiment: co-IP; Myc- and FLAG-tagged proteins co-expressed in S2 cells; cells treated with 1% paraformaldehyde for 10 minutes at room temperature before extraction; IP with anti-FLAG or anti-Myc, Western blot.
The target in experiment [3] is T2, Corto-FLAG (ETP Corto, FLAG-tagged) (Drosophila melanogaster) (UniProt P41046).
T2 sequence: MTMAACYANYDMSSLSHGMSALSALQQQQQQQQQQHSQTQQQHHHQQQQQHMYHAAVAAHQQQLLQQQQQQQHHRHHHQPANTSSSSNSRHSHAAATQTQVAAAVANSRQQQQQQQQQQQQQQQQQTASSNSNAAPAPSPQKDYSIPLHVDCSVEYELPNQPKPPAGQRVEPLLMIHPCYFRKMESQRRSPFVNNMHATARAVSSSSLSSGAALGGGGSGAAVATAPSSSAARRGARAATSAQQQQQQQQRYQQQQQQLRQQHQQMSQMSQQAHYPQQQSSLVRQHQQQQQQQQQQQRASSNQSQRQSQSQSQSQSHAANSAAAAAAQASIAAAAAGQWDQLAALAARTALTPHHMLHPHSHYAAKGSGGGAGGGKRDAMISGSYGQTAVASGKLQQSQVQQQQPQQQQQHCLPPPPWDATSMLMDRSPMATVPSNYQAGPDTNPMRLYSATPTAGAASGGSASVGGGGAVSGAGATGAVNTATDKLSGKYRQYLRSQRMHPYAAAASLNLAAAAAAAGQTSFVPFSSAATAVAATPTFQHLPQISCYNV
Briefly: condition: only native protein extracts, without cross-linking; co-IP; Myc- and FLAG-tagged proteins co-expressed in S2 cells; native whole cell extracts (no cross-linking); IP with anti-FLAG or anti-Myc, protein G-agarose, Western blot.

For experiment [4], the target named is T2, Corto-FLAG (ETP Corto, FLAG-tagged) (Drosophila melanogaster). Kind of experiment: co-IP; Myc- and FLAG-tagged proteins co-expressed in S2 cells; cells treated with 1% paraformaldehyde for 10 minutes at room temperature before extraction; IP with anti-FLAG or anti-Myc, Western blot.
The target of experiment [5] is T3, EloB, tagged (co-immunoprecipitation with EloA, data not shown) (Drosophila melanogaster) (UniProt O44226).
T3 sequence: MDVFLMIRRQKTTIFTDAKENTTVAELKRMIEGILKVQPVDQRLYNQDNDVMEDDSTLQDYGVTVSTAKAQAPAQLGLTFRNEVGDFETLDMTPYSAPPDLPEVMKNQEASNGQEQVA
Kind of experiment: co-IP; data not shown; tagged EloA and EloB in S2 cells, after cross-linking with paraformaldehyde.

Results are given in words; binding and its absence hold for the method and conditions named. Binding seen in cells or lysates may run through a third protein. Some binding calls cover weakened binding; strength is not graded here. Tags and fused reporters may be left off the sequences shown.

B1: Corto-FLAG (ETP Corto, FLAG-tagged) (protein, UniProt P41046 1-550)
chain: MTMAACYANYDMSSLSHGMSALSALQQQQQQQQQQHSQTQQQHHHQQQQQHMYHAAVAAHQQQLLQQQQQQQHHRHHHQPANTSSSSNSRHSHAAATQTQVAAAVANSRQQQQQQQQQQQQQQQQQTASSNSNAAPAPSPQKDYSIPLHVDCSVEYELPNQPKPPAGQRVEPLLMIHPCYFRKMESQRRSPFVNNMHATARAVSSSSLSSGAALGGGGSGAAVATAPSSSAARRGARAATSAQQQQQQQQRYQQQQQQLRQQHQQMSQMSQQAHYPQQQSSLVRQHQQQQQQQQQQQRASSNQSQRQSQSQSQSQSHAANSAAAAAAQASIAAAAAGQWDQLAALAARTALTPHHMLHPHSHYAAKGSGGGAGGGKRDAMISGSYGQTAVASGKLQQSQVQQQQPQQQQQHCLPPPPWDATSMLMDRSPMATVPSNYQAGPDTNPMRLYSATPTAGAASGGSASVGGGGAVSGAGATGAVNTATDKLSGKYRQYLRSQRMHPYAAAASLNLAAAAAAAGQTSFVPFSSAATAVAATPTFQHLPQISCYNV
Take B1: the binding result in experiment [1] is “no binding”; in experiment [2], “binds”.

B2: EloB-Myc (Elongin B, Myc-tagged) (protein, UniProt O44226 1-118)
chain: MDVFLMIRRQKTTIFTDAKENTTVAELKRMIEGILKVQPVDQRLYNQDNDVMEDDSTLQDYGVTVSTAKAQAPAQLGLTFRNEVGDFETLDMTPYSAPPDLPEVMKNQEASNGQEQVA
Turning to B2, the binding entry in experiment [3] is “no binding”; in experiment [4], “binds weakly”.

B3: EloA, tagged (co-immunoprecipitation with EloB, data not shown) (protein, UniProt Q9VCP0 1-643)
chain: MASTSNLLDVVRHYQRSIEKHGEDEQRLLHCITKLFNLPIKFEHLQETGIGKTVNALRKISGEVGVAAKTLVTKWKAMVAKEDPSIASTPTAIHNEEDSGKTKSSDEDPDQENKGGNSSSGEDLNTSKHKSKHAKSTKHERSSSSRSHSKSRSDSDKKHKSSRHDKSKDRDKDREGQKEAKEHKEKKSNGEHKSKDSSKSSSSHKSSKSESHKSEHTKSKHEKDKTSHSELKEVKDKSSKHKSSSSKSSKRSHSPPRHEEESQKAKIPKVKSKSEEDSADGFDSSMGANFDDVLGLLNIPISSKKSSSNSKSKFVAKPTAAPSSSALSAPTTAGSSKEALSTSSRPTSKKPELLASTAKLEPLDPNIALELPTISNNYKPMPLNQTVMDVVFNQGGSHKAQASRYFNESEALAQGISSKTMRTKIYSGVRTGQILQVPSLFDLCTRVLQKNIDALEYTGGVPFEVLRPVLERATPQQLLNFEEYNPYLMDDSDVLWQQHVQRHCRSQRREEMETWREMFLRCQEEKDRKLSILAESIKASQKISEAPVRKTQLAFVDSMVKPPRSVQRKQEQYGTKGKLIATPAARVAALSSVTPNAAKVGDARLRVLAAARDTAQVGAGPARSKKAPLMAKTLQFMRGRLKR
Regarding B3, the binding result in experiment [5] is “binds weakly”.
